Experimental data from patent US11618753B2 (priority 2018, dated 2023).

Tested on: MLKL phosphorylation, HT29-L23 human colorectal adenocarcinoma cells
Test: cells
Conditions: read-out: pMLKL HCS Cell Assay (IC50, uM)

Compound | IC50 [µM]
COc1ncc(-c2cc(C(F)(F)F)c3c(N)ncnn23)cc1C(=O)N[C@@H]1CN(S(=O)(=O)C2CC3CCC2C3)C[C@@H]1F (stereo partly drawn) [Example 1480, 5-[4-amino-5-(trifluoromethyl)pyrrolo[2,1-f][1,2,4]triazin-7-yl]-N-[(3R,4S)-1-{bicyclo[2.2.1]heptane-2-sulfonyl}-4-fluoropyrrolidin-3-yl]-2-methoxypyridine-3-carboxamide] | 0.012
Nc1ncnn2c(-c3cc(C(=O)N[C@@H]4CN(C(=O)C5CC(F)(F)C5)C[C@@H]4F)c(Cl)cc3F)cc(C(F)(F)F)c12 [Example 406, 5-[4-amino-5-(trifluoromethyl)pyrrolo[2,1-f][1,2,4]triazin-7-yl]-2-chloro-N-[(3R,4S)-1-(3,3-difluorocyclobutanecarbonyl)-4-fluoropyrrolidin-3-yl]-4-fluorobenzamide] | 0.01
Cc1ncc(-c2cc(C(F)(F)F)c3c(N)ncnn23)cc1C(=O)Nc1cnn(C(C)c2ccc(F)cc2)c1 (stereo not shown) [Example 1777, 5-(4-amino-5-(trifluoromethyl)pyrrolo[2,1-f][1,2,4]triazin-7-yl)-N-(1-(1-(4-fluorophenyl)ethyl)-1H-pyrazol-4-yl)-2-methylnicotinamide] | 0.00055
Cc1cc(C(=O)N2C[C@H](F)[C@H](NC(=O)c3cc(-c4cc(C(F)(F)F)c5c(N)ncnn45)c(F)cc3C)C2)c(F)cn1 [Example 820, 5-[4-amino-5-(trifluoromethyl)pyrrolo[2,1-f][1,2,4]triazin-7-yl]-4-fluoro-N-[(3R,4S)-4-fluoro-1-(5-fluoro-2-methylpyridine-4-carbonyl)pyrrolidin-3-yl]-2-methylbenzamide] | 0.016
CC(C)(C)OC(=O)N1CC[C@H](NC(=O)c2cc(-c3cc(C(F)(F)F)c4c(N)ncnn34)ccc2F)C1 [Example 251, tert-butyl (3S)-3-{5-[4-amino-5-(trifluoromethyl)pyrrolo[2,1-f][1,2,4]triazin-7-yl]-2-fluorobenzamido}pyrrolidine-1-carboxylate] | 0.223
COc1cc(C(=O)N[C@@H]2CN(C(=O)C(C)C(F)(F)F)C[C@@H]2F)cc(-c2cc(C(F)(F)F)c3c(N)ncnn23)c1 (stereo partly drawn) [Example 573, 3-[4-amino-5-(trifluoromethyl)pyrrolo[2,1-f][1,2,4]triazin-7-yl]-N-[(3R,4S)-4-fluoro-1-(3,3,3-trifluoro-2-methylpropanoyl)pyrrolidin-3-yl]-5-methoxybenzamide] | 0.017
COc1ncc(-c2ccc3c(N)ncnn23)cc1C(=O)NCCC(O)c1ccccc1 (stereo not shown) [Example 152, 5-{4-aminopyrrolo[2,1-f][1,2,4]triazin-7-yl}-N-(3-hydroxy-3-phenylpropyl)-2-methoxypyridine-3-carboxamide] | 0.1
COc1ncc(-c2cc(C(F)(F)F)c3c(N)ncnn23)cc1C(=O)N[C@H]1CCN(C(=O)C2CCCC2)C1 [Example 264, 5-[4-amino-5-(trifluoromethyl)pyrrolo[2,1-f][1,2,4]triazin-7-yl]-N-[(3S)-1-cyclopentanecarbonylpyrrolidin-3-yl]-2-methoxypyridine-3-carboxamide] | 0.104
Cc1cc(C)c(-c2cc(C(F)(F)F)c3c(N)ncnn23)cc1C(=O)N[C@@H]1CN(C(=O)C2CCC(F)(F)C2)C[C@@H]1F (stereo partly drawn) [Example 536, 5-[4-amino-5-(trifluoromethyl)pyrrolo[2,1-f][1,2,4]triazin-7-yl]-N-[(3R,4S)-1-(3,3-difluorocyclopentanecarbonyl)-4-fluoropyrrolidin-3-yl]-2,4-dimethylbenzamide] | 0.036
COc1ncc(-c2cc(CN3CCS(=O)(=O)CC3)c3c(N)ncnn23)cc1C(=O)N[C@@H]1CN(C(=O)C2CC(F)(F)C2)C[C@@H]1F [Example 499, 5-{4-amino-5-[(1,1-dioxo-thiomorpholin-4-yl)methyl]pyrrolo[2,1-f][1,2,4]triazin-7-yl}-N-[(3R,4S)-1-(3,3-difluorocyclobutanecarbonyl)-4-fluoropyrrolidin-3-yl]-2-methoxypyridine-3-carboxamide] | 0.011
Nc1ncnn2c(-c3cc(F)c(Cl)c(C(=O)N[C@@H]4CN(C(=O)CC(C(F)(F)F)C(F)(F)F)C[C@@H]4F)c3)cc(C(F)(F)F)c12 [Example 632, 5-[4-amino-5-(trifluoromethyl)pyrrolo[2,1-f][1,2,4]triazin-7-yl]-2-chloro-3-fluoro-N-[(3R,4S)-4-fluoro-1-[4,4,4-trifluoro-3-(trifluoromethyl)butanoyl]pyrrolidin-3-yl]benzamide] | 0.0022
COc1ncc(-c2cc(CN3CCC(F)(F)C3)c3c(N)ncnn23)cc1C(=O)N[C@@H]1CN(C(=O)C2CC(F)(F)C2)C[C@@H]1F [Example 1581, 5-{4-amino-5-[(3,3-difluoropyrrolidin-1-yl)methyl]pyrrolo[2,1-f][1,2,4]triazin-7-yl}-N-[(3R,4S)-1-(3,3-difluorocyclobutanecarbonyl)-4-fluoropyrrolidin-3-yl]-2-methoxypyridine-3-carboxamide] | 0.00095
Cc1nc(C)c(-c2cc(C(F)(F)F)c3c(N)ncnn23)cc1C(=O)N[C@@H]1CN(C(=O)C2CCC(F)(F)C2)C[C@@H]1F (single isomer, unassigned) [Example 526] | 0.108
Nc1ncnn2c(-c3ccc(F)c(C(=O)N4CCOC(Cc5ccccc5)C4)c3)cc(C(F)(F)F)c12 (stereo not shown) [Example 260, 7-[3-(2-benzylmorpholine-4-carbonyl)-4-fluorophenyl]-5-(trifluoromethyl)pyrrolo[2,1-f][1,2,4]triazin-4-amine] | 0.191
COc1ncc(-c2cc(C(F)(F)F)c3c(N)ncnn23)cc1C(=O)N[C@@H]1CN(S(=O)(=O)Cc2ccccn2)C[C@@H]1F [Example 1494, 5-[4-amino-5-(trifluoromethyl)pyrrolo[2,1-f][1,2,4]triazin-7-yl]-N-[(3R,4S)-4-fluoro-1-[(pyridin-2-yl)methanesulfonyl]pyrrolidin-3-yl]-2-methoxypyridine-3-carboxamide] | 0.143
COc1ncc(-c2cc(C(F)(F)F)c3c(N)ncnn23)cc1C(=O)N[C@@H]1CN(C(=O)CC2(C)CC2)C[C@@H]1F [Example 1207, 5-[4-amino-5-(trifluoromethyl)pyrrolo[2,1-f][1,2,4]triazin-7-yl]-N-[(3R,4S)-4-fluoro-1-[2-(1-methylcyclopropyl)acetyl]pyrrolidin-3-yl]-2-methoxypyridine-3-carboxamide] | 0.024
COc1ncc(-c2cc(C(F)(F)F)c3c(N)ncnn23)cc1C(=O)N[C@@H]1CN(C(=O)c2cnc(C)nc2)C[C@@H]1F [Example 1214, 5-[4-amino-5-(trifluoromethyl)pyrrolo[2,1-f][1,2,4]triazin-7-yl]-N-[(3R,4S)-4-fluoro-1-(2-methylpyrimidine-5-carbonyl)pyrrolidin-3-yl]-2-methoxypyridine-3-carboxamide] | 0.181
Nc1ncnn2c(-c3ccc(OCC(F)(F)F)c(C(=O)N[C@@H]4CN(C(=O)C5CCC(F)(F)CC5)C[C@@H]4F)c3)cc(C(F)(F)F)c12 [Example 1073, 5-[4-amino-5-(trifluoromethyl)pyrrolo[2,1-f][1,2,4]triazin-7-yl]-N-[(3R,4S)-1-(4,4-difluorocyclohexanecarbonyl)-4-fluoropyrrolidin-3-yl]-2-(2,2,2-trifluoroethoxy)benzamide] | 0.215
Nc1ncnn2c(-c3ccc(Cl)c(C(=O)N[C@@H]4CN(C(=O)CC(C(F)(F)F)C(F)(F)F)C[C@@H]4F)c3)cc(C(F)(F)F)c12 [Example 926, 5-[4-amino-5-(trifluoromethyl)pyrrolo[2,1-f][1,2,4]triazin-7-yl]-2-chloro-N-[(3R,4S)-4-fluoro-1-[4,4,4-trifluoro-3-(trifluoromethyl)butanoyl]pyrrolidin-3-yl]benzamide] | 0.003
COc1ncc(-c2cc(CN3CCC(F)(F)CC3)c3c(N)ncnn23)cc1C(=O)N[C@@H]1CN(C(=O)OCC(F)(F)F)C[C@@H]1F [Example 1553, 2,2,2-trifluoroethyl (3R,4S)-3-(5-{4-amino-5-[(4,4-difluoropiperidin-1-yl)methyl]pyrrolo[2,1-f][1,2,4]triazin-7-yl}-2-methoxypyridine-3-amido)-4-fluoropyrrolidine-1-carboxylate] | 0.0018
COc1c(F)cc(-c2cc(C(F)(F)F)c3c(N)ncnn23)cc1C(=O)N[C@@H]1CN(C(=O)C2CCC2)C[C@@H]1F [Example 682, 5-[4-amino-5-(trifluoromethyl)pyrrolo[2,1-f][1,2,4]triazin-7-yl]-N-[(3R,4S)-1-cyclobutanecarbonyl-4-fluoropyrrolidin-3-yl]-3-fluoro-2-methoxybenzamide] | 0.018
Cc1ccc(-c2cc(C(F)(F)F)c3c(N)ncnn23)cc1C(=O)Nc1cn(Cc2ccc(Cl)cc2)cn1 [Example 1809, 5-(4-amino-5-(trifluoromethyl)pyrrolo[2,1-f][1,2,4]triazin-7-yl)-N-(1-(4-chlorobenzyl)-1H-imidazol-4-yl)-2-methylbenzamide] | 0.001
Cc1cc(F)c(-c2cc(C(F)(F)F)c3c(N)ncnn23)cc1C(=O)N[C@@H]1CN(C(=O)CC(C)(O)C(F)(F)F)C[C@@H]1F (stereo partly drawn) [Example 856, 5-[4-amino-5-(trifluoromethyl)pyrrolo[2,1-f][1,2,4]triazin-7-yl]-4-fluoro-N-[(3R,4S)-4-fluoro-1-(4,4,4-trifluoro-3-hydroxy-3-methylbutanoyl)pyrrolidin-3-yl]-2-methylbenzamide] | 0.004
Cc1cc(F)c(C(=O)N[C@@H]2CN(C(=O)c3ccccc3F)C[C@@H]2F)cc1-c1cc(C(F)(F)F)c2c(N)ncnn12 [Example 391, 5-[4-amino-5-(trifluoromethyl)pyrrolo[2,1-f][1,2,4]triazin-7-yl]-2-fluoro-N-[(3R,4S)-4-fluoro-1-(2-fluorobenzoyl)pyrrolidin-3-yl]-4-methylbenzamide] | 0.215
CCc1c(F)cc(-c2cc(C(F)(F)F)c3c(N)ncnn23)cc1C(=O)N[C@@H]1CN(C(=O)[C@@](C)(O)C(F)(F)F)C[C@@H]1F [Example 650, 5-[4-amino-5-(trifluoromethyl)pyrrolo[2,1-f][1,2,4]triazin-7-yl]-2-ethyl-3-fluoro-N-[(3R,4S)-4-fluoro-1-[(2R)-3,3,3-trifluoro-2-hydroxy-2-methylpropanoyl]pyrrolidin-3-yl]benzamide] | 0.0045
